The results in this text go back to PubChem BioAssay AID1487 (National Center for Advancing Translational Sciences (NCATS), 2009).

Hit rate of the full screen: of about 200,000 compounds, about 25 (0.01%) were called active. Inconclusive results (about 23%) are left out. Calls follow the shape of the dose curve; as a rule, active = well fitted inhibition curve with a large enough effect in the signal ratio, with a control signal flat (not every such curve was filed as active); inconclusive = small, poorly fitted or top-dose-only effect, or effect the other way, or a change in a side signal; inactive = flat fitted curve, though single readings scatter; the % refers to the signal ratio. The list shows a part of the results, in another mix than the full data.
% is scaled to controls: 0 for no effect and ±100 for the full control effect; potency is read from the fitted curve at half-maximal effect.

This experiment can be described thus: qHTS Assay for Modulators of Lamin A Splicing. Particulars: HeLa LMNA splicing GFP/RFP minigene ratio, 48 h; series mostly up to 46.1 µM; ratio change, negative = inhibition: at the top concentration. The source says: NCGC Assay Overview: Hutchinson-Gilford Progeria Syndrome (HGPS) is a pediatric premature aging disease caused by a spontaneous mutation in the lamin A/C (LMNA) gene. The mutation activates a cryptic splice site in the LMNA pre-mRNA which results in production of a pre-lamin A protein that cannot be processed properly. The mutant protein accumulates in the nucleus and negatively affects numerous cellular functions. Correction of the splicing defect in HGPS patient cells using a targeted oligonucleotide (exo11) leads to reversal of the cellular disease phenotypes. To identify small molecule modulators of aberrant LMNA splicing, a homogenous assay was constructed in HeLa cells that used a GFP containing minigene to report on correction of aberrant splicing in lamin A and a RFP (DsRed2) to report on cell viability, uniformity and nonspecific effects on the assay signal. This assay was adapted to laser-scanning microplate cytometry (Acumen, TTP Labtech) where miniaturization of the assay to a 1,536-well plate format was possible. References: Bowen, W. P.; Wylie, P. G. Application of Laser-Scanning Fluorescence Microplate Cytometry in High Content Screening. Assay Drug Dev Technol 2006;4:209-221. Scaffidi P, Misteli T. Reversal of the cellular phenotype in the premature aging disease Hutchinson-Gilford progeria syndrome. Nat.
NCGC Assay Protocol Summary: Reagents/Controls: Stable clones expressing DsRed2 and lamin A-EGFP were generated by Cell and Molecular Technologies in S3 HeLa cells. HeLa cells were prepared for the assay when they were 70-90% confluent. The cells were counted and resuspended in Opti-MEM I (no phenol red; Gibco), 2% FBS, 1% penicillin/ streptomycin (Gibco) at concentration of 120 cells/uL concentration. The suspension was passed through a Falcon basket filter with pore size 40um (Beckton Dickson). Control titrations: column […] 1536-well plate contained a sixteen point titration (1:2 dilutions) in duplicate of ancitabine (Sigma: A8598) beginning at 40 uM final concentration. Column 2 contained a sixteen point titration (1:2 dilutions) of cycloheximide beginning at 1.4 mM final concentration. Column 3 contained ancitabine at 40 uM and column 4 contained was the vehicle control (0.5% DMSO final concentration). Assay Steps: 5 uL of HeLa cells were plated in Aurora LoBase black clear bottom (cyclic-olefin polymer) 1536-well plates at a final density of 600 cells/well. Controls and library compounds were added with a 1536-well pin array using the Kalypsys pin-tool. The plates were then incubated for 48 hrs in a cell-culture incubator (37 °C; 5% CO2, 98% humidity). Following incubation the plates were read on the Acumen Explorer using the 488 nm laser. Data was collected on objects between 10 and 100 um in size. Cell objects were defined by a 15 um width x 10 um depth filter. The ratio of the total object intensity in PMT1 (500-530 nm emission; GFP) over PMT3 (575-640 nm emission; RFP) was calculated for analysis. Keywords: NIH Roadmap, MLSCN, MLI, MLSMR, qHTS, NCGC, lamin A, Progeria, RNA splicing.
A general note: Quantitative high-throughput screening tests each substance at several concentrations.
In the case of `CCN(CC)C(=O)N[C@H]1C[C@@H]2c3cccc4[nH]cc(c34)C[C@H]2N(C)C1`, the “ratio change, negative = inhibition” value is inactive: -0.865%.

Consider `CC[N+]1(C)CCCC(OC(=O)C(O)(c2ccccc2)c2ccccc2)C1` (stereo not drawn), for which the “ratio change, negative = inhibition” value is inactive: 2.04%.

Regarding `CCN(CC)C(=O)N[C@@H]1C[C@@H]2c3cccc4[nH]cc(c34)C[C@H]2N(C)C1`, the “ratio change, negative = inhibition” value was inactive: -16.2%.

Take `C=CCN1CCC23c4c5ccc(O)c4O[C@H]2C(=O)CC[C@@]3(O)C1C5` (stereo partly drawn): the “ratio change, negative = inhibition” value is inactive: -27.3%.

Consider `C[N+](C)(C)CCCCCCCCCC[N+](C)(C)C`, for which the Potency entry is “inactive”.

As for `CC(CCc1ccccc1)NC(C)C(O)c1ccc(O)cc1` (stereo not drawn), the Potency result is “inactive”.

With `C[N+]1([O-])[C@@H]2CC(OC(=O)[C@@H](CO)c3ccccc3)C[C@@H]1[C@H]1O[C@H]12` (stereo partly drawn), the “ratio change, negative = inhibition” value is inactive: 9.7%.

For `CC[C@H]1C(=O)OC[C@H]1Cc1cncn1C`, the “ratio change, negative = inhibition” value was inactive: -8.23%.

Turning to `CC(C)Nc1ccc(Nc2ccccc2)cc1`, the Potency is active: 1410 nM.

Consider `CNC(=O)Oc1ccc2c(c1)[C@@]1(C)CCN(C)[C@@H]1N2C`, for which the “ratio change, negative = inhibition” value was inactive: 7.31%.

For `CC(C(=O)O)c1ccc(-c2ccccc2)c(F)c1` (stereo not drawn), the Potency entry is “inactive”.

For `Nc1ccncc1`, the “ratio change, negative = inhibition” value was inactive: -5.43%.

For `Cc1cc(C)cc(N2C(=O)NC(=O)/C(=C\c3cccn3-c3ccc(Cl)cc3)C2=O)c1`, the “ratio change, negative = inhibition” value was inactive: -0.698%.

On to `CC(N)[C@H](O)c1ccccc1` (stereo partly drawn), for which the “ratio change, negative = inhibition” value is inactive: -5.68%.

Consider `CC(=O)[C@]1(O)CCC2C3CCC4=CC(=O)CC[C@@]4(C)C3CC[C@]21C` (stereo partly drawn), for which the “ratio change, negative = inhibition” value is inactive: -5.42%.

Take `COP(=O)(OC)[C@@H](O)C(Cl)(Cl)Cl`: the “ratio change, negative = inhibition” value is inactive: 4.46%.

Consider `O=c1[nH]c2ccccc2n1CCCN1CCC(n2c(=O)[nH]c3cc(Cl)ccc32)CC1`, for which the “ratio change, negative = inhibition” value is inactive: -21.2%.

As to `CC(C)[N+](C)(CCC(C(N)=O)(c1ccccc1)c1ccccc1)C(C)C`, the “ratio change, negative = inhibition” value was inactive: 9.4% [at 46 µM].

With `CN1C[C@H](CNC(=O)OCc2ccccc2)C[C@H]2c3cccc4c3c(cn4C)C[C@@H]21`, the “ratio change, negative = inhibition” value was inactive: -22.5%.

Turning to `O=[N+]([O-])c1ccc(C2[C@H]3C(c4ccccc4)=NC4(CCCC4)N23)cc1` (stereo partly drawn), the “ratio change, negative = inhibition” value is inactive: -9.03%.

For `Cc1ccc(O)c(C(CCN(C(C)C)C(C)C)c2ccccc2)c1` (stereo not drawn), the “ratio change, negative = inhibition” value was inactive: -3.41%.

`NC(N)=NOCC[C@H](N)C(=O)O`: the Potency entry is “inactive”.

Take `CC[C@@H]1C(=O)OC[C@@H]1Cc1cncn1C`: the Potency entry was “inactive”.

With `Clc1cnc(Oc2ccc(Oc3ncc(Cl)cc3Cl)cc2)c(Cl)c1`, the “ratio change, negative = inhibition” value is inactive: 2.8%.

In the case of `CN1[C@@H]2CC(OC(=O)[C@H](CO)c3ccccc3)C[C@H]1[C@@H]1O[C@@H]12` (stereo partly drawn), the Potency entry was “inactive”.

As for `CN1CCC23CCCC[C@H]2C1Cc1ccc(O)cc13` (stereo partly drawn), the “ratio change, negative = inhibition” value was inactive: -25.9%.

With `C[C@]12CC[C@@H](O)C[C@@H]1CC[C@@H]1[C@@H]2CC[C@]2(C)C(=O)CC[C@@H]12`, the “ratio change, negative = inhibition” value was inactive: 2.61% [at 46 µM].

As to `CC1=CC(=O)C2=C(C)CC(O)C3C(C)C(=O)OC3C12` (stereo not drawn), the “ratio change, negative = inhibition” value was inactive: 3.81%.

As to `CNC(=O)Oc1ccc2c(c1)[C@@]1(C)CCN(C)C1N2C` (stereo partly drawn), the “ratio change, negative = inhibition” value is inactive: -13.7%.

Consider `C[C@]12CC[C@@H](O)CC1CCC1C2CC[C@]2(C)C(=O)CC[C@@H]12` (stereo partly drawn), for which the “ratio change, negative = inhibition” value is inactive: -20.5%.

For the molecule `CN[C@@H]1C[C@@H](c2ccc(Cl)c(Cl)c2)c2ccccc21`, the “ratio change, negative = inhibition” value was inactive: -28.6% [at 46 µM].

As to `NC1CC1c1ccccc1` (stereo not drawn), the “ratio change, negative = inhibition” value was inactive: -29.3%.

Turning to `COc1cc(C[C@@H](C)N)c(OC)cc1I`, the “ratio change, negative = inhibition” value was inactive: -19.1%.

In the case of `CNCC[C@H](Oc1ccc(C(F)(F)F)cc1)c1ccccc1`, the “ratio change, negative = inhibition” value was inactive: -3.28%.

On to `C[N+]12CCC(CC1)C(OC(=O)C(O)(c1ccccc1)c1ccccc1)C2` (stereo not drawn), for which the “ratio change, negative = inhibition” value is inactive: -0.312%.

As for `Cn1nc(-c2ccc(OCC(=O)N3CCN(Cc4ccccc4)CC3)cc2)c2ccccc2c1=O`, the “ratio change, negative = inhibition” value is inactive: 0.33%.

Regarding `COc1cc(CNC(=O)CCCC/C=C\C(C)C)ccc1O`, the Potency result was “inactive”.

For `CN=C(NC#N)NCCSCc1nc[nH]c1C`, the Potency result is “inactive”.

As to `CCC(COC(=O)c1cc(OC)c(OC)c(OC)c1)(c1ccccc1)N(C)C` (stereo not drawn), the “ratio change, negative = inhibition” value is inactive: 7.03%.

Take `Oc1ccc2c3c1OC1C(O)CC[C@@]4(O)[C@@H](C2)N(CC2CCC2)CC[C@]314` (stereo partly drawn): the “ratio change, negative = inhibition” value was inactive: 7.1% [at 46 µM].

On to `CN1C2CCC1CC(OC(c1ccccc1)c1ccccc1N)C2` (stereo not drawn), for which the “ratio change, negative = inhibition” value is inactive: -14.5%.

In the case of `Cc1cccc(C)c1NC1=NCCCS1`, the “ratio change, negative = inhibition” value was inactive: -4.98%.

For `CC12CCC(=O)C=C1CCC1C2CCC2(C)C(O)CCC12` (stereo not drawn), the “ratio change, negative = inhibition” value is inactive: -0.459%.

Turning to `NC(N)=NS(=O)(=O)c1ccc(N)cc1`, the “ratio change, negative = inhibition” value is inactive: -7.1%.

`CN1C(CC(=O)c2ccccc2)CCCC1CC(O)c1ccccc1` (stereo not drawn): the “ratio change, negative = inhibition” value is inactive: -5.82%.

Consider `CCCN(CCC)C1CCc2cccc(O)c2C1` (stereo not drawn), for which the “ratio change, negative = inhibition” value is inactive: -9.09%.

Regarding `Nc1nc2ccc(Cl)cc2c2nc(-c3ccco3)nn12`, the “ratio change, negative = inhibition” value is inactive: 4.4% [at 46 µM].

For `CN(C)C(=O)Oc1cc(OC(=O)N(C)C)cc(C(O)CNC(C)(C)C)c1` (stereo not drawn), the “ratio change, negative = inhibition” value was inactive: -2.02%.

As to `COc1ccc2c3c([nH]c2c1)C(C)=NCC3`, the “ratio change, negative = inhibition” value is inactive: -16.3%.

`C[C@@]12CCC3C(CC[C@@H]4CC(O)CC[C@@]34C)C1CCC2O` (stereo partly drawn): the “ratio change, negative = inhibition” value is inactive: -10.4%.

On to `CC(COc1ccccc1)N(CCCl)Cc1ccccc1` (stereo not drawn), for which the “ratio change, negative = inhibition” value is inactive: -8.36%.

With `COc1cc2c(cc1OC)[C@@]13CCN4CC5=CCO[C@H]6CC(=O)N2[C@H]1[C@H]6[C@H]5C[C@H]43`, the “ratio change, negative = inhibition” value is inactive: -2.11%.

With `C[C@H]1CC[C@@H]2[C@@H](C)[C@H]3[C@H](C[C@H]4[C@@H]5CC=C6C[C@@H](O[C@@H]7O[C@H](CO)[C@H](O)[C@H](O[C@@H]8O[C@H](CO)[C@@H](O)[C@H](O)[C@H]8O)[C@H]7O[C@@H]7O[C@@H](C)[C@H](O)[C@@H](O)[C@H]7O)CC[C@]6(C)[C@H]5CC[C@]34C)N2C1`, the “ratio change, negative = inhibition” value was inactive: -3.1%.
